The values below come from the supplement of paper PMC10600219.

Where a name gives a salt, the structure may show the parent alone. In all, about 2,800 compounds were measured (“cell viability relative to vehicle”: median about 0.98, lowest 2% from about 0.45 on). This is one part of the list.

The subject of this assay is NCI-H2228 alectinib-DTP. The assay can be described thus: cell viability relative to vehicle (fraction of vehicle); NCI-H2228 is an ALK-positive lung cancer line and DTP means drug-tolerant persister; higher = less growth inhibition. To be noted: 100 nM; treatment time 6 days. The procedure, abridged:
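NCI-H2228 parental cells and drug-tolerant persister cells were plated in 384-well plates; the persisters had been generated with 1000 nM of a targeted drug over 13 days. One day later, the 3114-agent TargetMol anti-cancer compound library was added at 100 nM, with DMSO serving as vehicle. ATP was measured 6 days after that using the CellTiter-Glo 3D Cell Viability Assay. Values are cell viability expressed relative to vehicle-treated cells.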
On to `CCOC(=O)[C@H](CCc1ccccc1)N[C@@H](C)C(=O)N1CCC[C@H]1C(=O)O` [Enalapril Maleate], for which the cell viability amounted to 0.751.

In the case of `c1cc(Nc2cc(C3CC3)[nH]n2)nc(Nc2ccc3nc[nH]c3c2)n1`, the cell viability amounted to 0.696.

As to `COc1cc2ncnc(Nc3ccc(O)cc3)c2cc1OC`, the cell viability came to 0.992.

With `CC(C)=CCC/C(C)=C/CC/C(C)=C/CC/C(C)=C/CC1=C(C)C(=O)c2ccccc2C1=O` [Menatetrenone], the cell viability stood at 0.832.

`O=C1/C(=C2\Nc3ccccc3C2=O)Nc2ccccc21` [Indigo] displayed a cell viability of 1.05.

The molecule `COc1ccc(-c2ccccc2)cc1NS(=O)(=O)c1cc(Cl)cc(Cl)c1O` came in with a cell viability of 0.883.

The molecule `COc1ccc2[nH]c([S+]([O-])Cc3ncc(C)c(OC)c3C)nc2c1` (stereo not drawn) [Omeprazole] yielded a cell viability of 0.981.

`O=C(Nc1ccc(-c2ccnc(Nc3ccc(N4CCOCC4)cc3)n2)cc1)C1CCCN1` (stereo not drawn) had a cell viability of 0.934.

As for `CCS(=O)(=O)Nc1ccc2c(c1)/C(=C(/Nc1ccc(CN3CCCCC3)cc1)c1ccccc1)C(=O)N2` [Hesperadin], the cell viability is 0.823.

In turn, `O=S(=O)(O)CCCS(=O)(=O)O` [Eprodisate disodium] had a cell viability of 1.06.

For the molecule `CC(Nc1nc(N2CCCC2)nc2ccccc12)c1ccccc1` (stereo not drawn) [Importazole], the cell viability is 1.12.

The molecule `COc1ccc(-c2cc(=O)c3c(O)cc(O[C@@H]4O[C@H](CO[C@@H]5O[C@@H](C)[C@H](O)[C@@H](O)[C@H]5O)[C@@H](O)[C@H](O)[C@H]4O)cc3o2)cc1` [Linarin] showed a cell viability of 0.937.

Consider `CCCCCCCCOC(=O)c1cc(O)c(O)c(O)c1` [Octyl gallate], for which the cell viability turned out to be 1.05.

`CC(=O)Nc1ccc(O)cc1` [Acetaminophen]: the cell viability is 1.09.

Regarding `Nc1cccc2c1CN(C1CCC(=O)NC1=O)C2=O` (stereo not drawn) [Lenalidomide], the cell viability is 0.897.

`NC(=S)N/N=C/c1ncccc1N` [Triapine] returned a cell viability of 1.03.

`C=CC1=C(C(=O)O)N2C(=O)[C@@H](NC(=O)/C(=N\OCC(=O)O)c3csc(N)n3)[C@H]2SC1` [Cefixime] returned a cell viability of 0.855.

`OCCOCCN1CCN(C(c2ccccc2)c2ccc(Cl)cc2)CC1` (stereo not drawn) [Hydroxyzine Pamoate] returned a cell viability of 1.06.

For `OCCOCCN1CCN(C(c2ccccc2)c2ccc(Cl)cc2)CC1` (stereo not drawn) [Hydroxyzine dihydrochloride], the cell viability was 0.846.

As for `O=C(O)c1ccc2c3c1cccc3c(=O)n1c3ccccc3nc21` [STO-609 acetate], the cell viability was 1.03.

Regarding `COc1ccc(CNC(=O)Nc2ncc([N+](=O)[O-])s2)cc1`, the cell viability stood at 0.764.

In turn, `O=C(NS(=O)(=O)c1ccc(Br)s1)c1ccc(Cl)cc1Cl` [Tasisulam] showed a cell viability of 0.922.

Molecule `C/C(=N\NC(=O)c1cccc(S(=O)(=O)N2CCOCC2)c1)c1cc(Cl)ccc1O` came in with a cell viability of 0.84.
